# Experimental data reported in publication PMC4242493.
# The list shows a part of the results. The list includes weakly bound sequences.
# Molecular target: MaxL homodimer (UniProt P61244)
# Experiment: universal protein-binding microarray (PBM)
# Settings: PBS-based mixture, 10 nM His-tagged protein dimer, 2% milk, 200 ng/uL BSA, 50 ng/uL salmon testes DNA, 0.02% TX-100; detection with Alexa 488 anti-His …; high values mean tight binding; most listed sequences are background and not binding sites; double strand, one strand shown
# Chain of UniProt P61244 (P61244 whole entry): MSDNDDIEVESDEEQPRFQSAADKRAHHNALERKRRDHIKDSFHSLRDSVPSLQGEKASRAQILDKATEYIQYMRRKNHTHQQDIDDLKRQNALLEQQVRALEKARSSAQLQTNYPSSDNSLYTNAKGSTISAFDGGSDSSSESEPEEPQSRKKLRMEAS
row,Sequence,binding signal (normalized occupancy)
1,AACGCAAG,0.073
2,CGCGGCCC,0.0708
3,CTAAGAGC,0.0702
4,AGACGCTG,0.0702
5,CTAATTGC,0.0729
6,ATCGAACC,0.0732
7,TATGGTAA,0.081
8,GTGTCGTA,0.0815
9,CCGAAAGG,0.0699
10,GAGACGTA,0.0761
11,TAAGGGTA,0.0739
12,ACAATTAG,0.0771
13,CCTTGGCC,0.0689
14,GACTGACA,0.0755
15,CCCCCACC,0.0787
16,ATTTGCGG,0.068
17,AGTTAAAT,0.0717
18,CCTTGTCA,0.0846
19,AGTAACCC,0.0796
20,ATGACAGA,0.0791
21,CAATGGCA,0.0773
22,ATATTAAA,0.0771

row,Sequence,binding signal (normalized occupancy)
1,CGCGTAGC,0.0692
2,CCCATATC,0.0823
3,ATTTTTAG,0.0756
4,AGAGCGAA,0.0759
5,ATGAGTAA,0.0779
6,CCGACGTC,0.0662
7,GTGCCTAA,0.0821
8,ATGTGCAC,0.0959
9,AAACTGCG,0.0655
10,ACCTCAAC,0.0767
11,AGTCAGCA,0.0751
12,GAAGTTGA,0.0753
13,ATTATCTA,0.0841
14,TCCCGCAA,0.0737
15,GTATTCTA,0.0797
16,CGTTGCTA,0.0843
17,TAACCCCA,0.0802
18,CAGCTCAA,0.0659
19,CGCTCTTA,0.0705
20,GAACATGC,0.089
21,CGAGAGGA,0.0739
22,ATGCGCAA,0.0792

row,Sequence,binding signal (normalized occupancy)
1,TGCATGAA,0.0821
2,CCCCCTGC,0.0849
3,AAGACGAG,0.0652
4,ACTATGCC,0.0749
5,CGCTCAGC,0.0654
6,AATAGAAC,0.0739
7,ATGGGGGC,0.0831
8,CTGTCAGC,0.0724
9,ACGGTAGC,0.0766
10,GTTTAAAA,0.076
11,ACACATTC,0.0866
12,ATCAGCAC,0.0789
13,AACACTGC,0.0702
14,GCGGTAAA,0.0732
15,CTTGTTGC,0.0728
16,GAGTCGCC,0.072
17,CCAATGCA,0.0795
18,ACTTGTTG,0.0737
19,CGGTTCGC,0.0651
20,CATTAGCA,0.0852
21,CGACTCGC,0.0679
22,CCCAGGGG,0.0708

row,Sequence,binding signal (normalized occupancy)
1,CCGTTGGA,0.071
2,GATGCTCA,0.0734
3,ATAGAGAT,0.0751
4,CCGGCGAC,0.0657
5,CGGGGGTC,0.0772
6,AGCGTAAA,0.0682
7,GGTTAACA,0.0765
8,AAGGCCTT,0.071
9,ACGAAGCT,0.0665
10,CGCTGTCC,0.073
11,CCTGAGTA,0.0728
12,ACTGAAAA,0.0764
13,CATTTTAA,0.0765
14,CCTGGTCG,0.0732
15,CACTCACA,0.0843
16,AAACTTAG,0.0756
17,ACCTAGTG,0.0786
18,AGGGTCGG,0.073
19,ATATAGTG,0.0807
20,AGACTAGC,0.0676
